Test results taken from PubChem BioAssay AID360 (National Center for Advancing Translational Sciences (NCATS), 2006).
About 550 (1.1%) of roughly 48,000 compounds were called active. Inconclusive results (about 4%) are left out. No stated cut-off is given here; in the data, active means potency below about 15 µM; inconclusive means mostly about 16 µM to 33 µM; inactive means weaker than that. This is one part of the list.

Molecular target: Lysosomal acid glucosylceramidase (Homo sapiens) (UniProt P04062)
Chain of UniProt P04062 (P04062 whole entry, looked up): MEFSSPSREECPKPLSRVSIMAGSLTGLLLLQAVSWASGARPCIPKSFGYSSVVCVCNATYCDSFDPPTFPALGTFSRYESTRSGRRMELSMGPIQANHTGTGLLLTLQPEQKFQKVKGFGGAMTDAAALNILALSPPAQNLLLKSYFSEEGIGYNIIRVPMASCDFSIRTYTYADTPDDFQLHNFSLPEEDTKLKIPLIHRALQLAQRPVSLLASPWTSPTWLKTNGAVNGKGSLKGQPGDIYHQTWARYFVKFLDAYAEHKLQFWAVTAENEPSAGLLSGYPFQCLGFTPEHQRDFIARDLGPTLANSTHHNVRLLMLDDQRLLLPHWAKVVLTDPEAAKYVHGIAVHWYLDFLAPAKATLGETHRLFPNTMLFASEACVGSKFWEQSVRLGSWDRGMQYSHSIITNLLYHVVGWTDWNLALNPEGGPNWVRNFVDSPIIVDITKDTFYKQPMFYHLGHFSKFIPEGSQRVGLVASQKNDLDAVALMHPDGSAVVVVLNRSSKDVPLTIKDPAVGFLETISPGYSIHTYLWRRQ
Experiment: Glucocerebrosidase;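 further: the screen sought inhibitors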
Conditions: purified enzyme, resorufin glucoside fluorescence (screen aimed at inhibitors), 20 min; series mostly up to 77 µM
Summary of the method: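 Compounds titrated against 0.2 nM normal enzyme, 30 uM resorufin beta-D-glucopyranoside substrate, citrate/phosphate buffer with taurocholate and tween-20, pH 5.9. Reaction ran 20 min at room temperature; fluorescence (Ex 548/Em 600) gave AC50.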
Potency means the concentration at half of the fitted maximal effect.

Potency, inactive:
Cc1nn(Cc2ccc(Cl)cc2)c(C)c1NC(=O)c1noc2c1CCCCC2 > 76.9 µM
CC(=O)c1nc2ccccc2n1S(=O)(=O)c1ccc(C)cc1 > 76.9 µM
COC(=O)CSc1nc2cc3c(cc2cc1C#N)OCO3 > 76.9 µM
O=C(NC1CCCCC1)C1CC(O)CN1C(=O)OCc1ccccc1 (stereo not drawn) > 76.9 µM
O=C(Nc1ccc(N2CCOCC2)cc1)c1cccc(S(=O)(=O)N2CCCC2)c1 > 76.9 µM
Cc1ccc2c(c1)nnn2C1CCN(S(=O)(=O)c2cccc(S(=O)(=O)N(C)C)c2)CC1 > 76.9 µM
Cc1ccc(C(C)NC(=O)c2cc(C)oc2C)cc1 (stereo not drawn) > 76.9 µM
COc1ccc(S(=O)(=O)N2CCOCC2)c(Cl)c1Cl > 76.9 µM
O=C(NCCN1C(=O)CCC1=O)c1ccncc1 > 76.9 µM
CCn1c(SCC(=O)Nc2nonc2C)nnc1-c1ccco1 > 76.9 µM
N#Cc1c(-c2cccs2)cc(-c2ccccn2)nc1N > 76.9 µM
COC1(OC)N=C(N)C2(C#N)C(c3ccc4c(c3)OCO4)C12C#N (stereo not drawn) > 76.9 µM
Cc1c(NC(=O)c2cc(C(C)C)on2)c(=O)n(-c2ccccc2)n1C > 76.9 µM
Cc1cc(=O)oc2cc(OC(C)C(=O)N3CCCc4ccccc43)ccc12 (stereo not drawn) > 76.9 µM
CCOC(=O)c1sc(NC(=O)CSc2n[nH]c(-c3ccccc3)n2)c(C#N)c1C
CCc1c(C(=O)NCc2ccc3c(c2)OCO3)[nH]c(C)c1C(C)=O > 76.9 µM
Cc1cc2ccccc2n2c(SCC(=O)N3CCN(C(=O)c4ccco4)CC3)nnc12 > 76.9 µM
Cc1nc2ccccc2nc1OCC(=O)Nc1cc(C(F)(F)F)ccc1N1CCOCC1 > 76.9 µM
O=C1c2ccccc2C(=O)N1Cc1nc2ccccc2c(=O)n1CCN1CCOCC1 > 76.9 µM
COC(=O)C1CCN(C(=O)NC(C)(C)C)CC1 > 76.9 µM
O=C(O)c1[nH]c2ccc(Cl)cc2c1CC(=O)N1CCN(c2ccccc2)CC1 > 76.9 µM
O=C(Nc1ccc2nc(-c3cccs3)[nH]c2c1)c1cccs1
O=C(c1cc2nc(-c3ccccc3)cc(C(F)(F)F)n2n1)N1CCOCC1 > 76.9 µM
Cc1sc2nc3n(c(=O)c2c1C)CCCS3 > 76.9 µM
COc1ccc(S(=O)(=O)N(CCCN2CCCC2=O)Cc2cc3c(C)ccc(C)c3[nH]c2=O)cc1 > 76.9 µM
O=c1cc(CSc2nnc(COc3ccccc3Cl)o2)nc2sccn12 > 76.9 µM
C=CCn1c(COc2ccc(Cl)cc2)nnc1SCc1ccc(C#N)cc1 > 76.9 µM
COC(=O)c1cc2oc(C)cc2n1CC(=O)Nc1ccc(OC)c(OC)c1OC
O=C(O)CS(=O)(=O)c1ccc(Oc2ccc(S(=O)(=O)CC(=O)O)cc2)cc1 > 76.9 µM
Cc1cc(Cl)ccc1N1C(=O)CC(SCCC(=O)O)C1=O (stereo not drawn) > 76.9 µM
CCc1ccc(NC(=O)Nc2cccs2)cc1 > 76.9 µM
COc1ccc(-c2nn(C)c(=O)c3ccccc23)cc1CNC(=O)c1ccco1 > 76.9 µM
C[C@@H]1C[C@H](O)c2cc(Cl)ccc2N1 > 76.9 µM
Cc1ccc(CN2CCN(CC(=O)NCc3ccc(Cl)cc3)C2=O)cc1 > 76.9 µM
CCS(=O)(=O)N1CCC(C(=O)OCC(=O)c2ccc(Br)cc2)CC1 > 76.9 µM
FC(F)(F)C12CC(c3ccccc3)=NCCN1CCN2 (stereo not drawn) > 76.9 µM
CCOc1ccccc1C(=O)N(CCC(=O)OC)c1ccccn1 > 76.9 µM
O=C(C1CCCO1)N1CCC(O)(c2ccccc2)CC1 (stereo not drawn) > 76.9 µM
COc1ccc2c(c1OC)C(=O)N(c1cccc(C(F)(F)F)c1)C2 > 76.9 µM
CC1CC(C)(C)NC(=S)S1 (stereo not drawn) > 76.9 µM
N#CC(C(=O)NCCc1ccccc1)c1nc2ccccc2nc1N1CCCCC1 (stereo not drawn) > 76.9 µM
Cc1ccc(C2/C(=C(\O)c3c(C)nc4ccccn34)C(=O)C(=O)N2CCCN(C)C)o1 (stereo not drawn) > 76.9 µM
CCOC(=O)N1CCC(NC(=O)c2ccc3c(c2)N(C)CCS3)CC1 > 76.9 µM
O=C(C1CC(c2ccc(F)cc2)=NO1)N1CCCCC1 (stereo not drawn) > 76.9 µM
CNS(=O)(=O)c1cccc(C(=O)OCc2cc(Cl)cc3c2OCOC3)c1 > 76.9 µM
COc1ccc(-n2nc3cc(C)c(NC(=O)C(C)C)cc3n2)cc1 > 76.9 µM
CCc1nc(SC)[nH]c(=O)c1C > 76.9 µM
c1ccc(COc2ccc(OCCn3cncn3)cc2)cc1 > 76.9 µM
CC1CCN(C(=O)c2ccc3c(c2)OCCO3)CC1 > 76.9 µM
CCn1nc(CC(=O)Nc2nnc(CC(=O)N3CCCC3)s2)c2ccccc2c1=O > 76.9 µM
O=C(C1CCN(S(=O)(=O)Cc2ccccc2)CC1)N1CCN(c2ncccn2)CC1 > 76.9 µM
CCOc1ccc2[nH]c(=O)c(CN(CCO)C(=O)c3ccc(F)cc3)cc2c1 > 76.9 µM
Cn1c(=O)n(CC(=O)N2CCN(c3nnc(-c4ccccc4)c4ccccc34)CC2)c2ccccc21 > 76.9 µM
Cc1ccc(-c2nnc3ccc(SCC(=O)NCc4ccco4)nn23)cc1 > 76.9 µM
COc1cccc(-n2nnc3c(=O)n(Cc4cccc(F)c4)cnc32)c1 > 76.9 µM
CC1(C)CC(=O)C2=C(C1)NCN(Cc1ccc3c(c1)OCO3)C2 > 76.9 µM
Cc1c(C)c2cc(Cl)c(OCc3nn[nH]n3)cc2oc1=O > 76.9 µM
CCCc1cc(=O)oc2cc(OCC(=O)N(C)C)c(Cl)cc12 > 76.9 µM
